According to paper PMC7772775, “The uncharacterized protein FAM47E interacts with PRMT5 and regulates its functions” (Life Science Alliance, 2020):
Results are given in words; binding and its absence hold for the method and conditions named. For some assays here: In cells and extracts the contact can be indirect. Some results given as binding are weak or reduced against the parent protein; the word gives no strength. For some assays here: Where a sequence is shown, tags or fusion partners need not be part of it. Each block holds one molecule with its values, some of them ahead of it.

Protein sequences, listed by entry. Tags and fused reporters are not part of them. Lines headed by an entry give the natural chain unless they say otherwise; changes in a name come on top.
UniProt O14744: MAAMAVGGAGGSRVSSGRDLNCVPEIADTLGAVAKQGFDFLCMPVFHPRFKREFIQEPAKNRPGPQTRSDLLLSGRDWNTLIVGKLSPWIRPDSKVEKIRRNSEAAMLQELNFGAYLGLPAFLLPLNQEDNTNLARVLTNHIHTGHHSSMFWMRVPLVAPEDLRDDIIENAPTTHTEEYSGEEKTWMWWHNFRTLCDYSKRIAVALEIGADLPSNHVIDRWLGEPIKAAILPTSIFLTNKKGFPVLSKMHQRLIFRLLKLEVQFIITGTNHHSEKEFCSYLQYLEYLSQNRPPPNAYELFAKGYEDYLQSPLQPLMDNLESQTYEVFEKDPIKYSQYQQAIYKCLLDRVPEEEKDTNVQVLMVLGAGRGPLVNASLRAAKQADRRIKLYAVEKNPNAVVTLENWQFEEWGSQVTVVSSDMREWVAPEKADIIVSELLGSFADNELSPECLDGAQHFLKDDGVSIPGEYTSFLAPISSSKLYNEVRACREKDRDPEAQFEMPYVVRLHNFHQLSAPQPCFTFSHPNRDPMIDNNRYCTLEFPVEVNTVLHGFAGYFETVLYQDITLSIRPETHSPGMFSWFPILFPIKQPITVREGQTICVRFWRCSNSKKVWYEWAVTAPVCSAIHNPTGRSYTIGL
UniProt Q92905: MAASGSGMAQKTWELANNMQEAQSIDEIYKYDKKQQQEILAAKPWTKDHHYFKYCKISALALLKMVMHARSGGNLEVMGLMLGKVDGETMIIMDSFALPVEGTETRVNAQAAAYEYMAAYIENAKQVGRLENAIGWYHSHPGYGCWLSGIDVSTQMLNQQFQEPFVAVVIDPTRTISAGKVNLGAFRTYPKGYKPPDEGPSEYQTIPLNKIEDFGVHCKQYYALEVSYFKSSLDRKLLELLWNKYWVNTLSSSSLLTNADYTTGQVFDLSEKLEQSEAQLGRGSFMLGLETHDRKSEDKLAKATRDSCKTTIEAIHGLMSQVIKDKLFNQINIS

Legend:
[1] = target: T1, GFP-tagged FAM47E (human) (UniProt Q6ZV65); assay: co-IP; HEK293 cells co-transfected; lysis buffer 10 mM Tris pH 7.5, 150 mM NaCl, 0.5 mM EDTA, 0.5% NP-40; GFP-Trap A beads, 8 h at 4°C; with or without HA-FAM47E overexpression; bound fractions probed with Myc antibody
T1 sequence: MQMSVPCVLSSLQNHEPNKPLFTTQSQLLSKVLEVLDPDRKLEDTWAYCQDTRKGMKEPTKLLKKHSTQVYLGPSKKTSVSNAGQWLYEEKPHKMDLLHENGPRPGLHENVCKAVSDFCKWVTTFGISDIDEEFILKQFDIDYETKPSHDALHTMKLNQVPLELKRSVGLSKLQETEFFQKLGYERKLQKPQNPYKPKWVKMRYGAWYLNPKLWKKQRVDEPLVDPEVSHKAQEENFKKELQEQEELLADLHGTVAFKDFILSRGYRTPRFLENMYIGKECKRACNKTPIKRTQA

[2] = target: T1, GFP-tagged FAM47E (human); assay: co-IP; HEK293 cells co-transfected with both tagged constructs; lysed in RIPA buffer; GFP-Trap A beads, 8 h at 4°C; bound fractions probed with Myc or HA antibody
[3] = target: PRMT5 (protein arginine methyltransferase 5), pGBKT7-PRMT5 two-hybrid bait (human) (UniProt O14744); assay: two-hybrid; library screen, Matchmaker Gold system; pGBKT7-PRMT5 as bait, normalized human cDNA library as prey; low stringency (two reporter genes) and high stringency (four reporter genes) selection media
GFP-tagged PRMT5 (human) [4] = target: GFP-tagged PRMT5 (human) (UniProt O14744); assay: co-IP; HEK293 cells co-transfected; lysis buffer 10 mM Tris pH 7.5, 150 mM NaCl, 0.5 mM EDTA, 0.5% NP-40; GFP-Trap A beads, 8 h at 4°C; with or without HA-FAM47E overexpression; bound fractions probed with Myc antibody
[5] = target: T1, GFP-tagged FAM47E (human); assay: co-IP; HEK293 cells transfected with GFP or GFP-FAM47E; RIPA buffer; GFP-Trap A beads; bound fractions probed with PRMT5 antibody (endogenous PRMT5)
[6] = target: PRMT5 (protein arginine methyltransferase 5), pGBKT7-PRMT5 two-hybrid bait (human) (UniProt O14744); assay: two-hybrid; co-transformation of pGBKT7-PRMT5 and pGADT7-FAM47E in MM Gold yeast strain, with vector controls; SD-Trp/-Leu/+Aba/+X-alpha-Gal and SD-Trp/-Leu/-His/-Ade/+Aba/+X-alpha-Gal media
GFP-tagged PRMT5 (human) [7] = target: GFP-tagged PRMT5 (human) (UniProt O14744); assay: co-IP; HEK293 cells co-transfected with both tagged constructs; lysed in RIPA buffer; GFP-Trap A beads, 8 h at 4°C; bound fractions probed with Myc or HA antibody

binding [1]: binds
Molecule: Myc-tagged MEP50 (from UniProt Q9BQA1-1 1-342)

binding [2]: binds
Molecule: Myc-tagged PRMT5 (from UniProt O14744-1 1-637) (enzyme)

binding [3]: no binding
Molecule: COP9 signaling complex subunit 5 (COPS5 protein), full length, two-hybrid library clone (from UniProt Q92905 1-334)

binding (GFP-tagged PRMT5 (human) [4]): binds
Molecule: Myc-tagged E3 ubiquitin ligase CHIP (from UniProt Q9UNE7-1 1-303) (enzyme)

binding [5]: binds
Molecule: endogenous PRMT5 (from UniProt O14744 1-637) (enzyme)

binding [3]: binds
B1: C-terminal region of FAM47E isoform 2 (43 amino acid to 295 amino acid), two-hybrid library clone (domain or fragment, UniProt Q6ZV65-2 43-295)
chain: EDTWAYCQDTRKGMKEPTKLLKKHSTQVYLGPSKKTSVSNAGQWLYEEKPHKMDLLHENGPRPGLHENVCKAVSDFCKWVTTFGISDIDEEFILKQFDIDYETKPSHDALHTMKLNQVPLELKRSVGLSKLQETEFFQKLGYERKLQKPQNPYKPKWVKMRYGAWYLNPKLWKKQRVDEPLVDPEVSHKAQEENFKKELQEQEELLADLHGTVAFKDFILSRGYRTPRFLENMYIGKECKRACNKTPIKRTQA

binding [6]: binds
B2: FAM47E isoform 2, full length, pGADT7-FAM47E two-hybrid prey (protein, UniProt Q6ZV65-2 1-295)
chain: MQMSVPCVLSSLQNHEPNKPLFTTQSQLLSKVLEVLDPDRKLEDTWAYCQDTRKGMKEPTKLLKKHSTQVYLGPSKKTSVSNAGQWLYEEKPHKMDLLHENGPRPGLHENVCKAVSDFCKWVTTFGISDIDEEFILKQFDIDYETKPSHDALHTMKLNQVPLELKRSVGLSKLQETEFFQKLGYERKLQKPQNPYKPKWVKMRYGAWYLNPKLWKKQRVDEPLVDPEVSHKAQEENFKKELQEQEELLADLHGTVAFKDFILSRGYRTPRFLENMYIGKECKRACNKTPIKRTQA

binding (GFP-tagged PRMT5 (human) [7]): binds
B3: HA-tagged FAM47E (protein, UniProt Q6ZV65-2 1-295)
chain: MQMSVPCVLSSLQNHEPNKPLFTTQSQLLSKVLEVLDPDRKLEDTWAYCQDTRKGMKEPTKLLKKHSTQVYLGPSKKTSVSNAGQWLYEEKPHKMDLLHENGPRPGLHENVCKAVSDFCKWVTTFGISDIDEEFILKQFDIDYETKPSHDALHTMKLNQVPLELKRSVGLSKLQETEFFQKLGYERKLQKPQNPYKPKWVKMRYGAWYLNPKLWKKQRVDEPLVDPEVSHKAQEENFKKELQEQEELLADLHGTVAFKDFILSRGYRTPRFLENMYIGKECKRACNKTPIKRTQA
